Source: PubChem BioAssay AID360 (National Center for Advancing Translational Sciences (NCATS), 2006)
Out of some 48,000 compounds screened, about 550 (1.1%) were called active. About 4% were inconclusive and are not listed. Cut-off read from the data, not from the text of the source: active = potency below about 15 µM; inconclusive = mostly about 16 µM to 33 µM; inactive = weaker than that. This is one part of the list.

biological target: Lysosomal acid glucosylceramidase (Homo sapiens) (UniProt P04062); assay: Glucocerebrosidase; conditions: purified enzyme, resorufin glucoside fluorescence (screen aimed at inhibitors), 20 min; series mostly up to 77 µM;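 note: the screen sought inhibitors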
Outline: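 Normal human glucocerebrosidase (0.2 nM final) was assayed with resorufin β-D-glucopyranoside (30 uM final) in 50mM citric acid/KH2PO4, 10mM sodium taurocholate, 0.01% tween-20, pH 5.9. Compounds were titrated; fluorescence (Ex 548, Em 600) read after 20 min at RT.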
Potency is the fitted concentration of half-maximal effect.

Sequence of UniProt P04062 (P04062 whole entry, looked up): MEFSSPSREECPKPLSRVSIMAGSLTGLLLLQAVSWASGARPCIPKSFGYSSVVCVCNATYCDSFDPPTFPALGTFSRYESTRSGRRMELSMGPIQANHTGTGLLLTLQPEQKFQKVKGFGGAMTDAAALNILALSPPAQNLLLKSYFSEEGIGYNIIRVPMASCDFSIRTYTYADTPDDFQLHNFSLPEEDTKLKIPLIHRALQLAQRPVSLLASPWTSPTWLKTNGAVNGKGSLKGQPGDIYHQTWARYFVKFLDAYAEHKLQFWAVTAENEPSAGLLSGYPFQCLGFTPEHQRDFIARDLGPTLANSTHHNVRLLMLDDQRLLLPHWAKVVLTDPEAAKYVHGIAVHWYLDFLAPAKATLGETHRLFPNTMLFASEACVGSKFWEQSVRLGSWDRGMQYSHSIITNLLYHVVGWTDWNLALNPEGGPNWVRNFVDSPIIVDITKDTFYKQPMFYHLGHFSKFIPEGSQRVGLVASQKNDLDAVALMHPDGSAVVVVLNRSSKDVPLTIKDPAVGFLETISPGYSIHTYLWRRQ

Potency, inactive:
O=C(NC1CCCCCC1)C1CCN(S(=O)(=O)N2CCC3(CC2)OCCO3)CC1 > 76.9 µM, O=C(Nc1ccc2c(c1)OCO2)NC1CCN(Cc2ccccc2)CC1 > 76.9 µM, COc1cc(C2C(C(=O)c3ccc(C)o3)=C(O)C(=O)N2c2cc(C)on2)cc(Br)c1O (stereo not given) > 76.9 µM, O=C(CN1C(=O)C2C3C=CC(C3)C2C1=O)NCCC1=CCCCC1 (stereo not given) > 76.9 µM, O=c1c2ccccc2nc(-c2ccco2)n1Cc1ccccc1 > 76.9 µM, O=C(Nc1ccccc1C(=O)NCc1ccc(Cl)cc1)c1ccco1 > 76.9 µM, COc1ccc(CCn2c(-n3nc(C)cc3C)nc3c2c(=O)[nH]c(=O)n3C)cc1 > 76.9 µM, C=CCc1cccc(CNc2nc3ccccc3n2CCN2CCOCC2)c1O > 76.9 µM, CN(C)c1nc(SCCOC(=O)Nc2ccccc2)nc(N(C)C)n1 > 76.9 µM, CCOc1cccc(NC(=O)C(Cc2cccs2)c2nn[nH]n2)c1 (stereo not given) > 76.9 µM, Cc1c(C)n(C(=O)CN2CCC(C(N)=O)CC2)c2ccccc12, Cn1nnc2c(N3CCCCC3)nccc21 > 76.9 µM, C=CCNC(=O)C1CCN(c2nc(C)cc(-c3ccccc3)n2)CC1 > 76.9 µM, CCOC(=O)CSc1nnc(-c2ccoc2C)n1-c1ccc(OCC)cc1 > 76.9 µM, CC1CC(C)CN(CCCNC(=O)C2CCN(S(=O)(=O)N3CCCCC3)CC2)C1 (stereo not given) > 76.9 µM, COC(=O)c1cccc(N(C(=O)CNC(=O)c2ccco2)C(C(=O)NC2CCCC2)c2ccco2)c1 (stereo not given) > 76.9 µM, CCC(c1nnnn1C1CCCC1)N1CCN(C(=O)c2ccco2)CC1 (stereo not given) > 76.9 µM, Cc1ccc(C)n1/N=C1/NC(=O)CS1 > 76.9 µM, CC1CN(C(=O)CSc2ncnc3sccc23)CC(C)O1 (stereo not given) > 76.9 µM, NC(=O)c1cnn2c1NC(c1ccc(F)cc1)CC2C(F)(F)F (stereo not given) > 76.9 µM, CCc1ccc(N(CC(=O)NC)S(C)(=O)=O)cc1 > 76.9 µM, Nc1nnc(CCN2C(=O)CSC2=O)s1 > 76.9 µM, CCN(CC)C(=O)CSc1nnc([C@@H](N)Cc2ccccc2)o1 > 76.9 µM, CCOC(=O)C1C(=O)NC(SCC(=O)OC)=C(C#N)C1c1ccccc1OCC (stereo not given) > 76.9 µM, O=C(CN1CCN(c2ccc(F)cc2)CC1)Nc1ccc(-n2cnnn2)cc1 > 76.9 µM
